Measured values reported in the RNAGym collection of RNA variant scans (doi:10.7554/elife.90254).
The source gives no read counts; variants with many changes may rest on few reads.

B1: LINE1-mini (parent)
chain: GGCAGAGCUCAACACAGCGUGGCAAAGUGGCUGUGGCUAGACUGCC

Variants of: B1
Test: self-cleavage, relative activity (ratio to wild type); higher = more cleavage; in vitro, sequencing; the parent is a self-cleaving ribozyme

| Variant | self-cleavage |
| --- | --- |
| U9C U20G U32G | 0.05 |
| U9G G19U A25G G30A | 0.02 |
| C10A A25U A26C G29A G30U G35U U43C C46G | 0.03 |
| U9C C18A G27C | 0.03 |
| U9C G17A C18A G30A | 0.04 |
| U9C A14C G17U G22C | 0.01 |
| U9C A39U C45U | 0.02 |
| U9G G21U C31G | 0.02 |
| U9G G21U C31U | 0.02 |
| U9C G30U U34G A39G | 0 |
| C10A A26C G35U | 0.01 |
| U9C C13U G22A | 0.4 |
| U9C C18G A25G U32A | 0.02 |
| C10A A25C G30U G36C | 0.02 |
| U9G A11U A12C C18A G21U G27A | 0 |
| C10A A11U C31G A41U | 0 |
| U9C C13A G29U | 0.03 |
| U9G U20A U43G G44U | 0.45 |
| U9G G17U G29C G30A U32A | 0.17 |
| C10A A14U A16G G22C G30U A39U G40A | 0 |
| U9G A16U C31G | 0.03 |
| C10A A14C G22U | 0.01 |
| C10A A11U A24G | 0.08 |
| U9C A16C G21C C42U | 0.03 |

| Variant | self-cleavage |
| --- | --- |
| U9C C10U G17C G21C | 0.01 |
| U9G C13U G17A G36A G40C G44C | 0.16 |
| U9G C23U A26G | 0.02 |
| U9C C23G A25U | 0.02 |
| C10A A24U G36C | 0.02 |
| U9G C18G C23U U28A G29A G35A | 0.1 |
| U9G C37U A39G | 0.05 |
| U9C C15A G29U C45A | 0.01 |
| U9G G17A U20A A39G C46U | 0 |
| U9G A11C G19A | 0.01 |
| C10A A12C A24C C37U G44C C46A | 0 |
| U9G A14C G19A | 0.05 |
| U9G A12C G36U C37A A41C | 0.03 |
| U9G A24C G30C | 0.02 |
| U9C C31U G33C U34C G40A C42A | 0.02 |
| C10A A14C U28C U43G C46A | 0 |
| U9G A14U C46A | 0.06 |
| U9G A11C C45G | 0.02 |
| U9C A25C G35U | 0.06 |
| U9C G40U C45G | 0.01 |
| U9C C13U U20A | 0.02 |
| C10A A14G G21U | 0.04 |
| U9C C23G U34C C37U | 0.02 |
| U9C A24C A39G C42G | 0.01 |

| Variant | self-cleavage |
| --- | --- |
| U9G G19A U38C | 0.02 |
| C10A A16C A24C U32C G36U | 0 |
| U9G C15U G21U A25G G33U A39C G44A | 0 |
| U9G G35U C45G | 0.04 |
| U9G C15G G36U | 0.46 |
| U9C G22A A24U C37A U38G | 0.01 |
| U9C C15G A16U U20G U43G | 0.02 |
| U9C G17U A41G C45G C46A | 0.02 |
| U9C A14U G30C G40U | 0.02 |
| C10A A14U C31A | 0.01 |
| C10A A14U C31U | 0.02 |
| U9C G19A C45A | 0.01 |
| U9G C10U A12U | 0.05 |
| U9G A26C G30U C31U | 0.01 |
| C10A A12C C23G C45U | 0 |
| U9C G17U G29U U38A | 0.03 |
| C10A A12G C13U G36A | 0.02 |
| U9C U28C C31A | 0.01 |
| U9C G17C G30C | 0.02 |
| U9G C10A C46U | 0.02 |
| U9C A16U G30A C31A G33U | 0 |
| U9C G21C C45U | 0.02 |
| U9C C10U A11G G17C | 0 |
| U9G C15A G22A U32A | 0.03 |

| Variant | self-cleavage |
| --- | --- |
| U9C G22U A26G G40A G44C | 0 |
| U9C A14G G19A C42A | 0.02 |
| U9C A16U G29U C31A | 0.01 |
| C10A A25G G35C C37A | 0.01 |
| U9C G22A C23A U34G C46A | 0 |
| U9G G40U C42A | 0.03 |
| U9C C13A A24C U28A U32G G33U | 0.01 |
| U9G C45G C46U | 0.11 |
| U9G G30A G36A | 0.23 |
| U9C C23G G44A | 0.02 |
| U9C C10U U28C G36U G40C | 0.01 |
| C10A A24G G33A | 0.02 |
| U9C G19C A24G A26G | 0.08 |
| U9G A11C U28G C46G | 0 |
| C10A A24U C46A | 0.04 |
| U9C A41U C46U | 0.04 |
| C10A A11U C15A G40A | 0.02 |
| C10A A14U U20C | 0.01 |
| U9C C10A U43A | 0.02 |
| U9G A14C G19C G21A C37A A41U G44U | 0.07 |
| U9C A14G G30A C31G G36C C42G | 0.01 |
| U9G G17U U28G G29A | 0.02 |
| U9G G33U G36U | 0.03 |
| U9C G21C G22C | 0.01 |

| Variant | self-cleavage |
| --- | --- |
| U9G C15A U20C G40U | 0.04 |
| U9C G17C G29A G30A | 0.03 |
| U9C U20G U28A G36U | 0.03 |
| U9C A14U C18A A25G C45A | 0.01 |
| U9G C10G A26C U32G | 0.02 |
| U9C G21A C23A | 0.02 |
| U9G C13G G17A G21U G35A C37G | 0.08 |
| U9C C13U G27C G44C | 0.01 |
| U9G C10A A14C A26G U34G | 0.01 |
| U9G C10U C13U A14G A24U A25C C45U | 0.03 |
| U9G C10G A26U | 0.03 |
| U9C C13A G17C | 0.02 |
| U9G C23U C42A | 0.08 |
| U9C C13U C18G G19C G33C U43C | 0.01 |
| U9C G22A C46A | 0.03 |
| C10A A14G C31U U32C | 0 |
| C10A A26C G35C G36A C42G | 0 |
| U9G G22C C23A | 0.01 |
| U9G C31A C42U | 0.02 |
| U9C G35U A41C U43C | 0.02 |
| U9C G19C G29U C37G | 0.02 |
| C10A A12G A25U C37U | 0 |
| U9C C10A C46G | 0.04 |
| C10A A16G G33A G40C | 0 |

| Variant | self-cleavage |
| --- | --- |
| U9C A14C A41U | 0.03 |
| U9G A11G A24G C45U | 0.01 |
| C10A A25U G36U C42A | 0.01 |
| C10A A12G A26G C37A | 0.02 |
| C10A A16U G33A A39U | 0.01 |
| U9G G27U G40U | 0.11 |
| U9G C18U C23U G36C | 0.05 |
| U9G A12C G21U G29A | 0.01 |
| U9C U43G C46U | 0.02 |
| C10A A11C G30C C45G | 0.02 |
| C10A A11C G17C | 0 |
| U9G C15U U34A G35U C42U | 0.02 |
| C10A A16C G21U C37A | 0.01 |
| U9G G19A C42A | 0.04 |
| U9C C10G C15U G36A G44U | 0.02 |
| U9G U38C U43C G44U | 0.02 |
| C10A A12C C18G U20C G44U | 0.01 |
| C10A A26C C46U | 0.03 |
| U9G C23G G33U | 0.01 |
| C10A A16U A24U G40A | 0.02 |
| U9C C15A G17A | 0.03 |
| U9G G19C G36U | 0.05 |
| U9G C13G A41U C42A G44A | 0.07 |
| U9G G44A C45U | 0.25 |

| Variant | self-cleavage |
| --- | --- |
| C10A A11C A25C G44A | 0.02 |
| U9G C18A U34G | 0.09 |
| C10A A12C G33U | 0 |
| U9G A24G A41G G44U | 0.06 |
| U9G A25C C42U | 0.07 |
| U9C C10A U20A | 0.03 |
| U9G C10G G30U G40C | 0.01 |
| U9G C10G C31A U32G | 0.02 |
| C10A A16C G40A | 0 |
| U9G C18U G33A U43C | 0.04 |
| C10A A12U C31U C42G | 0.01 |
| U9G C13U G21A G22C C23A | 0.06 |
| U9C G17C U32A | 0.04 |
| U9C G30U C31A | 0.04 |
| U9G G17C C23U G40C | 0.03 |
| C10A A12G U34A A39C | 0.04 |
| U9C C10G A11C G17U | 0.02 |
| C10A A24C C31U | 0.02 |
| C10A A16G G17C | 0.06 |
| U9C G19A G22C G33C | 0.03 |
| U9G C15A C18A G29C | 0.08 |
| U9G U20C U32C C37A U43G G44U | 0.03 |
| U9G G35U U38A | 0 |
